Laboratory results: PubChem BioAssay AID463173 (ICCB-Longwood Screening Facility, Harvard Medical School, 2010)
The campaign covered roughly 52,000 compounds. About 4,300 (8.3%) were called active. Rule as the data show it: active = survival mostly below about 52% (no sharp cut-off); inactive = mostly above about 56%. This is one part of the list.

What follows are molecules tested on DeltatarO mutant (assay: growth inhibition of S. aureus wild type versus tarO mutant, primary screen, teichoic acid synthesis inhibitors, RN4220, OD600 (AID 463173)). Conditions: OD600, 18 h, active compounds read low, screened at 18.75 µg/mL (by protocol).
For `Cc1ccc(-c2nnc(SCc3ccccc3C)o2)cc1`, the survival was active: -5%. In the case of `CCc1ccccc1NC(=O)c1c(NC(=O)c2ccccc2)sc2c1CCCC2`, the survival is reported as active: 42%. `CCc1ccc(C(=O)c2cn(CC(=O)Nc3ccc4c(c3)OCO4)c3cc(OC)c(OC)cc3c2=O)cc1` was tested, and the survival was inactive: 101%. In the case of `CCOC(=O)C1CCC(CN(Cc2cccc(Br)c2)S(=O)(=O)c2ccc(C)cc2)CC1` (centres undefined), the survival is reported as inactive: 122%. For `COc1ccc(S(=O)(=O)Nc2ccc3c(c2)N(C(C)=O)CCC3)cc1F`, the survival was inactive: 85%. With `Cc1ccc(C)c(N2CCN(C(=O)C3CCCN(S(=O)(=O)c4ccc5c(c4)oc(=O)n5C)C3)CC2)c1` (centres undefined) the survival was inactive: 87%. With `CCc1nc2ccccc2n1CCCCOc1ccc(C)cc1` the survival was active: 1%. With `CCC1CN(C(=O)N2CCC(C(=O)NCCN(CC)CC)CC2)c2cc(C)ccc2O1` (centres undefined) the survival was inactive: 94%. For `CCOc1cc(CNC(=O)c2sc3ncnc(N(C)C4CCCCC4)c3c2C)ccc1OC`, the survival was inactive: 92%. With `N#CCn1c(Cc2ccccc2)nc2ccccc2c1=O` the survival was inactive: 99%. In the case of `CC(=O)c1ccc(NC(=O)Cn2cc(S(=O)(=O)Cc3cccc(Cl)c3)c3ccccc32)cc1`, the survival is reported as inactive: 113%. `COc1ccccc1CNC(=O)C1CCC(CNS(=O)(=O)c2ccc3c(c2)CCCC(=O)N3)CC1` (centres undefined) was tested, and the survival was inactive: 76%. For `COCCCNC(=O)c1ccc(NC(=O)c2nsc3ccccc23)cc1`, the survival was inactive: 83%. In the case of `Cc1ccc(N2C(=O)CSC23C(=O)N(CC(=O)NCc2ccccc2)c2ccccc23)cc1C` (centres undefined), the survival is reported as inactive: 71%. For `Cc1cccc(C)c1OCC(=O)NCC1(N(C)C)CCCCC1`, the survival was inactive: 86%. With `CNC(=O)c1c(NC(=O)c2ccc(S(=O)(=O)N3CCC(C)CC3)cc2)sc2c1CCC2` the survival was inactive: 131%. For `COc1ccc(CNS(=O)(=O)c2cnc(N)nc2)c(OC)c1`, the survival was inactive: 83%. For `CCN(CC)CCNC(=O)c1ccc(Cn2c(SCc3ccccc3)nc3cccnc32)cc1`, the survival was inactive: 69%. With `Cc1ccc2c(Sc3ccc(Cl)cc3)c(C(=O)N3CCC(C)CC3)[nH]c2c1` the survival was inactive: 69%. `O=C(Nc1ccc2c(c1)oc1ccccc12)C1CC1` was tested, and the survival was inactive: 99%. For `O=c1c2oc3ccccc3c2n(Cc2ccccc2F)c(=O)n1Cc1ccccc1`, the survival was active: 46%. In the case of `Cc1ccc2onc(CC(=O)Nc3ccc(C(C)C)cc3)c2c1`, the survival is reported as active: 46%. For `Cc1ccc2c(c1)N(CCC(=O)NCc1ccccc1Cl)C(=O)CO2`, the survival was active: 40%. With `COc1cccc(CNC(=O)c2cc3c(=O)oc4ccc(C)cc4c3s2)c1` the survival was inactive: 73%. In the case of `CC(=O)C1=C(c2ccc(Cl)cc2)N(C(C)=O)n2c(nnc2C2CCCCC2)S1`, the survival is reported as inactive: 88%. For `O=C(O)C1CC(=O)N(CCCN2CCOCC2)C1` (centres undefined), the survival was inactive: 96%. `CC(C)(C)c1ccc(Cn2c(=N)n(CC(O)c3ccco3)c3ccccc32)cc1` (centres undefined) was tested, and the survival was active: 5%. In the case of `Cc1ccc(Cl)cc1N(C)C(=O)c1cn(C2CCCCC2)c(=O)c2c1c1ccccc1n2C`, the survival is reported as inactive: 103%. In the case of `Cc1ccc(N(CC(=O)Nc2cccc(Cl)c2)S(=O)(=O)c2cccs2)cc1`, the survival is reported as inactive: 103%. `CCN(Cc1ccccc1)S(=O)(=O)c1ccc2c(c1)CC(C)N2C(=O)C1CCC1` (centres undefined) was tested, and the survival was inactive: 95%. `Cc1cc(NC(=O)Nc2nnc(N(C)Cc3ccccc3)s2)ccc1Br` was tested, and the survival was inactive: 68%. With `Cn1cc(S(=O)(=O)N2CCOCC2)cc1C(=O)Nc1ccc(Cl)c(C(F)(F)F)c1` the survival was inactive: 67%. `CCOc1ccccc1NC(=O)Cc1noc2ccc(C)cc12` was tested, and the survival was inactive: 48%. `COc1cc(NC(=O)c2cn(C3CCCC3)c(=O)c3c2c2ccccc2n3C)cc(OC)c1OC` was tested, and the survival was inactive: 87%. In the case of `Cn1cnc2c(=O)oc3ccc(S(=O)(=O)Nc4ccc(F)cc4)cc3c21`, the survival is reported as inactive: 81%. For `COc1ccc(-c2nnc(SCc3cccc(Cl)c3)o2)cc1`, the survival was active: 22%. `CC(=O)N1CCC(N(Cc2ccc(C)o2)C(=O)Nc2ccc(C)cc2)CC1` was tested, and the survival was inactive: 96%. With `CCOc1ccc(OCC)c(NS(=O)(=O)c2ccc(-c3coc(C)n3)cc2)c1` the survival was inactive: 78%. `COc1ccc(NC(=O)c2c(NC(=O)c3ccc(Br)cc3)sc3c2CCCC3)cc1` was tested, and the survival was inactive: 169%. `Cn1c(=O)[nH]c(=O)c2c1nc(NCCc1ccccc1)n2Cc1ccc(F)cc1` was tested, and the survival was inactive: 68%. `Cc1nc2ccc(S(=O)(=O)N(C)CC(=O)Nc3cccc(C(F)(F)F)c3)cc2s1` was tested, and the survival was inactive: 94%. In the case of `CCOC(=O)c1cc(S(=O)(=O)N2CCN(c3ccccc3F)CC2)[nH]n1`, the survival is reported as active: -5%. With `CCOc1ccc(CNS(=O)(=O)c2ccc(-c3coc(C)n3)cc2)cc1` the survival was inactive: 115%. `COc1ccc(N2CCN(CCCNC(=O)Cn3c(-c4cccs4)cc4ccccc43)CC2)cc1` was tested, and the survival was inactive: 68%. `COc1ccc2nc(N(Cc3cccnc3)C(=O)C3CCCCC3)sc2c1` was tested, and the survival was inactive: 94%. With `COc1cccc(C2C(C(=O)Nc3ccc(C)cc3C)=C(C)Nc3nc4ccccc4n32)c1OC` (centres undefined) the survival was inactive: 81%. With `CCN(CC)S(=O)(=O)N1CCN(S(=O)(=O)N2CCOCC2)CC1` the survival was inactive: 103%. With `Fc1ccc2c(c1)-c1nc(-c3ccccc3)cc(-c3ccccc3)c1CO2` the survival was inactive: 67%. For `C=CCN1C(=O)C2C(C(=O)NCc3ccccc3)C3C=CC2(O3)C1C(=O)NC(C)(C)C` (centres undefined), the survival was inactive: 65%. With `Cn1c(=O)n(C)c2cc(/C=C(\C#N)C(N)=C(C#N)C#N)ccc21` the survival was inactive: 118%. In the case of `COc1ccc(N(C(=O)c2cccc(C)c2)S(=O)(=O)c2ccc(Cl)cc2)cc1`, the survival is reported as inactive: 68%. With `CC(C)CCNC(=O)c1cnc2sc(N3CCCCC3)nn2c1=O` the survival was inactive: 83%. In the case of `CC(NC(=O)C1CCN(c2nc3ccccc3nc2C(F)(F)F)CC1)c1ccccc1` (centres undefined), the survival is reported as active: 37%. With `CCCCN(CC)CCCNC(=O)Nc1sc2nc3n(c(=O)c2c1C)CCC(C)CC3` (centres undefined) the survival was inactive: 132%. `CCCCNC(=O)c1cccc(-n2c(C)nc3cccnc32)c1` was tested, and the survival was inactive: 90%. For `CCCS(=O)(=O)N1CCCC(C(=O)NCCOC)C1` (centres undefined), the survival was inactive: 55%. With `COC(=O)c1cc2c(cc1N)OCCO2` the survival was inactive: 88%. `C=Cc1ccc(C=C)cc1` was tested, and the survival was inactive: 79%. `O=C(CN1C(=O)CCc2cc(S(=O)(=O)N3CCOCC3)ccc21)Nc1cccc(C(F)(F)F)c1` was tested, and the survival was inactive: 83%.
